Laboratory results published in the supplement of paper PMC7125110.
± gives the standard error. Variants at the floor of the assay are shown more often than the library holds them.

B1: glmS ribozyme (parent)
chain: AUAAAAGCGCCAGAACUACAGAAAUGUAGUUGACGAGGAGGAGGUUUAUCGAAUUUUCGGCGGAUGCCUCCAAA

Columns and labels:
Details in all cases: with glucosamine-6-phosphate
glucosamine-6-phosphate [1] = variants of: B1; assay: self-cleavage kobs at 40 uM GlcN6P; higher = faster cleavage; RNA array
Procedure, shortened: (§1)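 On sequenced MiSeq chips, barcoded ribozyme variants were made in situ by E. coli RNA polymerase and followed at 37 °C through a hybridised Cy3 probe. Glucosamine-6-phosphate was flowed in at 40 μM to 10 mM in HEPES/KCl/Mg(OAc)2 buffer. Exponential fits to normalised per-tile medians gave kobs, and weighted Michaelis–Menten fits gave kcat and KM.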

glucosamine-6-phosphate [2] = variants of: B1; assay: self-cleavage kobs at 640 uM GlcN6P; higher = faster cleavage; RNA array
Procedure, shortened: as §1

glucosamine-6-phosphate [3] = variants of: B1; assay: self-cleavage kobs at 160 uM GlcN6P; higher = faster cleavage; RNA array
Procedure, shortened: as §1

glucosamine-6-phosphate [4] = variants of: B1; assay: self-cleavage kobs at 10000 uM GlcN6P; higher = faster cleavage; RNA array
Procedure, shortened: as §1

glucosamine-6-phosphate [5] = variants of: B1; assay: self-cleavage kobs at 2500 uM GlcN6P; higher = faster cleavage; RNA array
Procedure, shortened: as §1

| Variant | self-cleavage kobs at 40 uM GlcN6P (glucosamine-6-phosphate [1]) | self-cleavage kobs at 640 uM GlcN6P (glucosamine-6-phosphate [2]) | self-cleavage kobs at 160 uM GlcN6P (glucosamine-6-phosphate [3]) | self-cleavage kobs at 10000 uM GlcN6P (glucosamine-6-phosphate [4]) | self-cleavage kobs at 2500 uM GlcN6P (glucosamine-6-phosphate [5]) |
| --- | --- | --- | --- | --- | --- |
| G35C U46A | < 1e-05 s⁻¹ | < 1e-05 s⁻¹ | < 1e-05 s⁻¹ | < 1e-05 s⁻¹ | – |
| G37A U54A | 7.84e-05 ± 1.8e-05 s⁻¹ | – | – | – | – |
| C16A A53G | 7.66e-05 ± 1.7e-05 s⁻¹ | 0.000374 ± 9.2e-05 s⁻¹ | 0.000134 ± 3.8e-05 s⁻¹ | 0.0017 ± 0.00029 s⁻¹ | 0.000777 ± 0.00017 s⁻¹ |
| U30A G59A G63A | < 1e-05 s⁻¹ | – | – | – | – |
| G35C G51U | < 1e-05 s⁻¹ | < 1e-05 s⁻¹ | < 1e-05 s⁻¹ | < 1e-05 s⁻¹ | < 1e-05 s⁻¹ |
| U31C G38A U56C | < 1e-05 s⁻¹ | – | – | < 1e-05 s⁻¹ | – |
| G37U A52U | < 1e-05 s⁻¹ | < 1e-05 s⁻¹ | – | – | < 1e-05 s⁻¹ |
| G32U A36U A52C | < 1e-05 s⁻¹ | – | – | – | < 1e-05 s⁻¹ |
| G29A A48U | < 1e-05 s⁻¹ | – | < 1e-05 s⁻¹ | – | – |
| A36U G38C | < 1e-05 s⁻¹ | < 1e-05 s⁻¹ | < 1e-05 s⁻¹ | < 1e-05 s⁻¹ | < 1e-05 s⁻¹ |
| G35C A42C | < 1e-05 s⁻¹ | – | < 1e-05 s⁻¹ | < 1e-05 s⁻¹ | < 1e-05 s⁻¹ |
| G32A G35C | < 1e-05 s⁻¹ | – | < 1e-05 s⁻¹ | < 1e-05 s⁻¹ | < 1e-05 s⁻¹ |
| G32A G35U | < 1e-05 s⁻¹ | < 1e-05 s⁻¹ | < 1e-05 s⁻¹ | < 1e-05 s⁻¹ | – |
| C34G C58A | < 1e-05 s⁻¹ | < 1e-05 s⁻¹ | < 1e-05 s⁻¹ | < 1e-05 s⁻¹ | < 1e-05 s⁻¹ |
| G38A C61U | < 1e-05 s⁻¹ | – | – | – | – |
| C16A G29C G37U | < 1e-05 s⁻¹ | – | – | – | < 1e-05 s⁻¹ |
| A15C C50G A53G G62A C70G | 0.000105 ± 3e-05 s⁻¹ | 8.17e-05 ± 2.4e-05 s⁻¹ | – | 8.78e-05 ± 1.9e-05 s⁻¹ | 0.000125 ± 4.1e-05 s⁻¹ |
| G35U A52G G59A | < 1e-05 s⁻¹ | – | – | – | – |
| G32A G59U | < 1e-05 s⁻¹ | < 1e-05 s⁻¹ | – | – | – |
| G37C A39C A52G | < 1e-05 s⁻¹ | < 1e-05 s⁻¹ | – | < 1e-05 s⁻¹ | < 1e-05 s⁻¹ |
| G38A G63C U65C | < 1e-05 s⁻¹ | – | – | < 1e-05 s⁻¹ | < 1e-05 s⁻¹ |
| A36G G63C | < 1e-05 s⁻¹ | < 1e-05 s⁻¹ | – | < 1e-05 s⁻¹ | – |
| G32A G62C | < 1e-05 s⁻¹ | < 1e-05 s⁻¹ | – | < 1e-05 s⁻¹ | < 1e-05 s⁻¹ |

| Variant | self-cleavage kobs at 40 uM GlcN6P (glucosamine-6-phosphate [1]) | self-cleavage kobs at 640 uM GlcN6P (glucosamine-6-phosphate [2]) | self-cleavage kobs at 160 uM GlcN6P (glucosamine-6-phosphate [3]) | self-cleavage kobs at 10000 uM GlcN6P (glucosamine-6-phosphate [4]) | self-cleavage kobs at 2500 uM GlcN6P (glucosamine-6-phosphate [5]) |
| --- | --- | --- | --- | --- | --- |
| G32C U56C | < 1e-05 s⁻¹ | < 1e-05 s⁻¹ | < 1e-05 s⁻¹ | – | – |
| A15U G43U U54C G60C C70G | < 1e-05 s⁻¹ | – | – | < 1e-05 s⁻¹ | – |
| A33G G43A | < 1e-05 s⁻¹ | – | – | < 1e-05 s⁻¹ | – |
| U30C U47C | < 1e-05 s⁻¹ | – | < 1e-05 s⁻¹ | – | – |
| A36U U46C | < 1e-05 s⁻¹ | < 1e-05 s⁻¹ | < 1e-05 s⁻¹ | – | – |
| U31C G44U C68A C71U | < 1e-05 s⁻¹ | – | – | < 1e-05 s⁻¹ | – |
| C34A G35U G37A U49A U56C | < 1e-05 s⁻¹ | – | – | – | – |
| C34A G35A G59C C61G | < 1e-05 s⁻¹ | – | – | < 1e-05 s⁻¹ | – |
| A36U G38U U45C | < 1e-05 s⁻¹ | – | – | – | – |
| A15C G41A C70U | 0.000261 ± 6.2e-05 s⁻¹ | – | – | 0.0111 ± 0.0023 s⁻¹ | – |
| C16A A52G | < 1e-05 s⁻¹ | – | – | – | – |
| A36G U49G | < 1e-05 s⁻¹ | – | – | – | – |
| C16A G43C G66C | < 1e-05 s⁻¹ | – | – | < 1e-05 s⁻¹ | – |
| C34G C61U | < 1e-05 s⁻¹ | – | < 1e-05 s⁻¹ | < 1e-05 s⁻¹ | < 1e-05 s⁻¹ |
| A33G U65G | < 1e-05 s⁻¹ | < 1e-05 s⁻¹ | < 1e-05 s⁻¹ | < 1e-05 s⁻¹ | < 1e-05 s⁻¹ |
| A15G U57G C58U G59U C70U | < 1e-05 s⁻¹ | – | – | – | – |
| C34G G44A | < 1e-05 s⁻¹ | < 1e-05 s⁻¹ | < 1e-05 s⁻¹ | < 1e-05 s⁻¹ | < 1e-05 s⁻¹ |
| A33C G41C | < 1e-05 s⁻¹ | < 1e-05 s⁻¹ | < 1e-05 s⁻¹ | < 1e-05 s⁻¹ | < 1e-05 s⁻¹ |
| G32A G38U | < 1e-05 s⁻¹ | < 1e-05 s⁻¹ | < 1e-05 s⁻¹ | – | < 1e-05 s⁻¹ |
| A15U A53U | 9.26e-05 ± 9.9e-06 s⁻¹ | 0.000755 ± 0.00012 s⁻¹ | 0.000245 ± 3.8e-05 s⁻¹ | 0.0042 ± 0.00042 s⁻¹ | 0.00314 ± 0.00055 s⁻¹ |
| C34A A64C C70U | < 1e-05 s⁻¹ | – | – | < 1e-05 s⁻¹ | – |
| U31G A48U | < 1e-05 s⁻¹ | – | – | 5.93e-05 ± 2.1e-05 s⁻¹ | 8.46e-05 ± 1.6e-05 s⁻¹ |
